Assay results reported in PubChem BioAssay (NCI).
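A five-concentration, 48-hour dose response in 96-well plates underlies each endpoint, interpolated linearly between surrounding concentrations. GI50 = concentration required for 50% inhibition of growth. TGI: total growth inhibition.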

tested on: NCI-H322M lung; experiment: inhibition of tumour cell growth, NCI panel, 48 h

| Structure (SMILES) | GI50 [µM] | TGI [µM] |
| --- | --- | --- |
| COc1ccc2c(c1)c(-c1cc(N)n3nc(-c4c[nH]c5ccccc45)cc3n1)cn2C | 1.85 | 4.1 |
| CCCCCc1ccc(S(=O)(=O)N(C(C)=O)c2cc(-c3csc(N(C)C(C)=O)n3)ccc2N2CCN(C)CC2)cc1 | 8 | 15.6 |
| Clc1cccc(N/N=C/c2c[nH]c3ccc(Br)cc23)n1 | 11.2 | 23.2 |
| CCCCSc1nc(Nc2ccc(/C(C)=N/NC(N)=S)cc2)c(C#N)c(-c2ccc(OC)cc2)n1 | 20.7 | 63.7 |
| S=C(NCCc1ccccc1)Nc1ccc(OCc2nc3ccc(Cl)cc3[nH]2)cc1 | 10.7 | 22.5 |
| CC(=O)N1CCN(Cc2ccc3c(NNC(=O)c4cnccn4)nc4cc(F)ccc4n23)CC1 | 0.347 | 53 |
